{
  "source": "paper PMC5892938",
  "note": "This is one part of the list. At the low end of the ranking the order means little.",
  "data": [
    {"molecular_target": "GST-SBP-SLBP (stem-loop binding protein) (UniProt Q14493)", "assay": "targeted RNA Bind-n-Seq;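 note: DESeq read counts versus GST-SBP nonspecific binding control pulldown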", "settings": "RBNS binding buffer: 25 mM Tris pH 7.5, 150 mM KCl, 3 mM MgCl2, 0.1% Tween, 0.5 mg/mL BSA, 1 mM DTT; 27 nM protein, 750 pM RNA pool; temperature not stated; high values mean tight binding", "values": [
      {"sequence": "GGUCACGUCUCAAUCAACUCUAUCCCCAGGGAAAACCCUGGUUAUUUCAACAGCUCGCAGUCAAG", "binding signal (log2 fold change)": 0.142},
      {"sequence": "GGUCACGUCUCAAUCAACUCAUUCUCCAGGGAAACCCCUGGUUUUUUCAACAGCUCGCAGUCAAG", "binding signal (log2 fold change)": -0.0819},
      {"sequence": "GGUCACGUCUCAAUCAACUCAUUCUCCAGGGAAACCCCUGGCUUAUUCAACAGCUCGCAGUCAAG", "binding signal (log2 fold change)": 0.273},
      {"sequence": "GGUCACGUCUCAAUCAACUCUUCGUCAGGAGUUUCCUCCUGUAUUCUCAACAGCUCGCAGUCAAG", "binding signal (log2 fold change)": 0.18},
      {"sequence": "GGUCACGUCUCAAUCAACUCUUCCUCCAGGGAAAACCCUGGCAAUCUCAACAGCUCGCAGUCAAG", "binding signal (log2 fold change)": -0.249},
      {"sequence": "GGUCACGUCUCAAUCAACUCUACUUCCAGGGAAAUCCCUGGUAAAUUCAACAGCUCGCAGUCAAG", "binding signal (log2 fold change)": -0.359},
      {"sequence": "GGUCACGUCUCAAUCAACUCAGAAGAGGGGGGGAAAACCCCUUUACCCUCACAAUCAACAGCUCGCAGUCAAG", "binding signal (log2 fold change)": 0.0361},
      {"sequence": "GGUCACGUCUCAAUCAACUCAUCGUCCAGGGAAAUCCCUGGUAUAUUCAACAGCUCGCAGUCAAG", "binding signal (log2 fold change)": -0.145},
      {"sequence": "GGUCACGUCUCAAUCAACUCUUCUCCAGGAGUUUUCUCCUGUUAUUUCAACAGCUCGCAGUCAAG", "binding signal (log2 fold change)": -0.0978},
      {"sequence": "GGUCACGUCUCAAUCAACUCUCUCGAGGGGGGGAAAACCCCUUUGCCCUCACUAUCAACAGCUCGCAGUCAAG", "binding signal (log2 fold change)": -0.336},
      {"sequence": "GGUCACGUCUCAAUCAACUCAUUCUCAGGAGUUUCCUCCUGCAUUUUCAACAGCUCGCAGUCAAG", "binding signal (log2 fold change)": 0.0134},
      {"sequence": "GGUCACGUCUCAAUCAACUCUCAAGAGGGGGGGAAAACCCCUUUGCCCUCAAUAUCAACAGCUCGCAGUCAAG", "binding signal (log2 fold change)": -0.445},
      {"sequence": "GGUCACGUCUCAAUCAACUCAUCCUCAGGAGUUUGCUCCUGUAUACUCAACAGCUCGCAGUCAAG", "binding signal (log2 fold change)": -0.167},
      {"sequence": "GGUCACGUCUCAAUCAACUCUUUAGAGGGGGGGAAAACCCCUUUGCCCUCCACUUCAACAGCUCGCAGUCAAG", "binding signal (log2 fold change)": -0.0291},
      {"sequence": "GGUCACGUCUCAAUCAACUCAUCUCCCAGGGAAAACCCUGGUAUUUUCAACAGCUCGCAGUCAAG", "binding signal (log2 fold change)": 0.16},
      {"sequence": "GGUCACGUCUCAAUCAACUCAUCGCCCAGGGAAAUCCCUGGUUAUUUCAACAGCUCGCAGUCAAG", "binding signal (log2 fold change)": 0.101},
      {"sequence": "GGUCACGUCUCAAUCAACUCUUCUCCAGGAGUUUCCUCCUGUAUUUUCAACAGCUCGCAGUCAAG", "binding signal (log2 fold change)": 0.219},
      {"sequence": "GGUCACGUCUCAAUCAACUCUUCAGAGGGGGGGAAAACCCCUUUGCCCUCAAUAUCAACAGCUCGCAGUCAAG", "binding signal (log2 fold change)": 0.255},
      {"sequence": "GGUCACGUCUCAAUCAACUCAUUUCCAGGAGUUUGCUCCUGCUUUUUCAACAGCUCGCAGUCAAG", "binding signal (log2 fold change)": 0.0326},
      {"sequence": "GGUCACGUCUCAAUCAACUCUUUCUCAGGAGUUUACUCCUGUUAUCUCAACAGCUCGCAGUCAAG", "binding signal (log2 fold change)": 0.158},
      {"sequence": "GGUCACGUCUCAAUCAACUCUAUCCCAGGAGUUUUCUCCUGCUAUCUCAACAGCUCGCAGUCAAG", "binding signal (log2 fold change)": 0.0911},
      {"sequence": "GGUCACGUCUCAAUCAACUCUUCUCCAGGAGUUUUCUCCUGCAUUUUCAACAGCUCGCAGUCAAG", "binding signal (log2 fold change)": -0.0804},
      {"sequence": "GGUCACGUCUCAAUCAACUCUACAGAGGGGGGGAAAACCCCUUUACCCUCAUUAUCAACAGCUCGCAGUCAAG", "binding signal (log2 fold change)": 0.0252},
      {"sequence": "GGUCACGUCUCAAUCAACUCAUUUUCAGGAGUUUGCUCCUGCAUAUUCAACAGCUCGCAGUCAAG", "binding signal (log2 fold change)": 0.028},
      {"sequence": "GGUCACGUCUCAAUCAACUCAUUUCCAGGAGUUUACUCCUGUUUAGUCAACAGCUCGCAGUCAAG", "binding signal (log2 fold change)": -0.0751},
      {"sequence": "GGUCACGUCUCAAUCAACUCAGUCCCCAGGGAAAACCCUGGUUUUUUCAACAGCUCGCAGUCAAG", "binding signal (log2 fold change)": 0.518},
      {"sequence": "GGUCACGUCUCAAUCAACUCUUCUCCAGGAGUUUACUCCUGCAAUUUCAACAGCUCGCAGUCAAG", "binding signal (log2 fold change)": -0.0312},
      {"sequence": "GGUCACGUCUCAAUCAACUCAUCCCCCAGGGAAAACCCUGGCUUACUCAACAGCUCGCAGUCAAG", "binding signal (log2 fold change)": 0.149},
      {"sequence": "GGUCACGUCUCAAUCAACUCAUUCUCCAGGGAAAUCCCUGGCUAACUCAACAGCUCGCAGUCAAG", "binding signal (log2 fold change)": -0.115},
      {"sequence": "GGUCACGUCUCAAUCAACUCUUUCUCCAGGGAAAUCCCUGGUUAUCUCAACAGCUCGCAGUCAAG", "binding signal (log2 fold change)": 0.0175},
      {"sequence": "GGUCACGUCUCAAUCAACUCAGUCCCAGGAGUUUUCUCCUGCAAAUUCAACAGCUCGCAGUCAAG", "binding signal (log2 fold change)": 0.0718},
      {"sequence": "GGUCACGUCUCAAUCAACUCUUUUCCCAGGGAAACCCCUGGCAAUUUCAACAGCUCGCAGUCAAG", "binding signal (log2 fold change)": 0.154},
      {"sequence": "GGUCACGUCUCAAUCAACUCUCCCGAGGGGGGGAAAACCCCUUUACCCUCAAAUUCAACAGCUCGCAGUCAAG", "binding signal (log2 fold change)": -0.142},
      {"sequence": "GGUCACGUCUCAAUCAACUCCUAAGAGGGGGGGAAAACCCCUUUACCCUCAAUGUCAACAGCUCGCAGUCAAG", "binding signal (log2 fold change)": 0.0263},
      {"sequence": "GGUCACGUCUCAAUCAACUCAUUCUCAGGAGUUUACUCCUGUAAUCUCAACAGCUCGCAGUCAAG", "binding signal (log2 fold change)": 0.0729},
      {"sequence": "GGUCACGUCUCAAUCAACUCAUCGUCCAGGGAAACCCCUGGCUUAUUCAACAGCUCGCAGUCAAG", "binding signal (log2 fold change)": -0.0345},
      {"sequence": "GGUCACGUCUCAAUCAACUCAAGUCCAGGAGUUUUCUCCUGUUUUCUCAACAGCUCGCAGUCAAG", "binding signal (log2 fold change)": -0.0758}
    ]}
  ]
}
